# Measured values published in the supplement of paper PMC9446081.
# Among all 39,000 compounds or so, about 220 (0.56%) showed activity. The list shows a part of the results.
# Test system: Escherichia coli K-12 BW25113
# Assay: relative growth (OD600 normalised to plate interquartile mean) (fraction); higher = less growth inhibition, active = 0.2 or less
# Details: 50 µM; LB; incubation time: overnight (16-24 h)
# 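Also: static incubation at 37 °C against the wild-type strain, values averaged over two biological replicates.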
row,SMILES,relative growth
1,O=C1CN(S(=O)(=O)Cc2ccccc2)C[C@H]2[C@@H](c3ccc(C#Cc4cccc(F)c4)cc3)[C@H](CO)N12,inactive: 0.983
2,COc1cccc(NC(=O)N2C[C@H](O)COC[C@H]3O[C@@H](CC(=O)NCCCN4CCOCC4)CC[C@@H]32)c1,inactive: 0.996
3,CCNC(=O)C[C@H]1C=C[C@H](NC(=O)C2CC2)[C@@H](CO)O1,inactive: 1.01
4,C[C@H]1CN([C@@H](C)CO)C(=O)c2cccc(NC(=O)c3cnccn3)c2O[C@H]1CN(C)S(=O)(=O)c1cn(C)cn1,inactive: 0.995
5,C=CCOC(=O)[C@@H]1[C@H]2C(=O)O[C@H](c3ccccc3)[C@H](c3ccccc3)N2[C@H](c2ccc(OCCOC(=O)[C@@H]3C[C@@H]4C(=O)NCC(=O)N4[C@@H]3c3cccc(OCCO)c3)cc2)[C@@]12C(=O)Nc1ccccc12,inactive: 1.05
6,C[C@@H]1CCCCO[C@@H](CN(C)C(=O)Nc2cccc3ccccc23)[C@@H](C)CN([C@H](C)CO)C(=O)c2cc(N(C)C)ccc2O1,inactive: 1.01
7,CC(C)N1CC=C[C@@]23O[C@@H]4C=CCCOC(=O)[C@@H]4[C@H]2C(=O)N(CCO)[C@@H]3C1=O,inactive: 0.992
8,Cc1ccc(S[C@]2(C(=O)O)CC(=O)N(Cc3ccccc3C(F)(F)F)[C@@H]2c2ccc(CO)cc2)cc1,inactive: 0.957
9,C[C@H](CO)N1C[C@H](C)[C@@H](CN(C)Cc2ccc(Oc3ccccc3)cc2)Oc2c(NC(=O)NC3CCCCC3)cccc2C1=O,inactive: 0.991
10,O=C1c2c(O)cc(CO)cc2C(OC2OC(CO)C(O)C(O)C2O)c2cccc(OC3OC(CO)C(O)C(O)C3O)c21 (configuration not stated) [CASANTHRANOL [cascaroside A shown]],inactive: 1.06
11,Cc1ccc(S(=O)(=O)N(C)C[C@@H]2Oc3c(NC(=O)c4ccncc4)cccc3C(=O)N([C@H](C)CO)C[C@@H]2C)cc1,inactive: 0.985
12,CC(C)CC#Cc1ccc2c(c1)O[C@@H](CN(C)Cc1cncnc1)[C@@H](C)CN([C@@H](C)CO)S2(=O)=O,inactive: 0.951
13,COC(=O)c1c[nH]c(=S)n1C,inactive: 1.04
14,C[C@H]1CN([C@@H](C)CO)S(=O)(=O)c2ccc(C#Cc3ccncc3)cc2O[C@@H]1CN(C)C(=O)Nc1ccc2c(c1)OCO2,inactive: 0.998
15,Cc1noc(C)c1NC(=O)N(C)C[C@H]1OCCCC[C@@H](C)Oc2ccc(NS(=O)(=O)c3ccc(Cl)cc3)cc2C(=O)N([C@H](C)CO)C[C@H]1C,inactive: 0.962
16,C[C@@H]1CN([C@H](C)CO)C(=O)c2cc(NS(=O)(=O)c3cn(C)cn3)ccc2O[C@H]1CN(C)S(C)(=O)=O,inactive: 1.01
17,C[C@@H]1CCCCO[C@H](CN(C)CC2CC2)[C@@H](C)CN([C@H](C)CO)C(=O)c2cc(NC(=O)CCC(F)(F)F)ccc2O1,inactive: 1.02
18,C=C[C@](C)(O)CCC[C@H](C)CCC[C@H](C)CCCC(C)C,inactive: 0.998
19,Cc1ccc(S(=O)(=O)Nc2ccc3c(c2)CC(=O)N([C@@H](C)CO)C[C@@H](C)[C@@H](CN(C)Cc2ccc(-c4ccccc4)cc2)O3)cc1,inactive: 1.01

row,SMILES,relative growth
1,CC1(C)C=Cc2c(c3c(c4c(=O)c(-c5ccc(O)cc5)coc24)OC(C)(C)CC3)O1,inactive: 1
2,Cc1ccc(S(=O)(=O)Nc2ccc3c(c2)CC(=O)N([C@@H](C)CO)C[C@@H](C)[C@@H](CN(C)S(=O)(=O)c2cccs2)O3)cc1,inactive: 0.995
3,COc1ccc(S(=O)(=O)Nc2ccc3c(c2)C(=O)N([C@H](C)CO)C[C@H](C)[C@@H](CN(C)C(=O)Nc2ccc(C(F)(F)F)cc2)OCCCC[C@H](C)O3)cc1,inactive: 0.995
4,C[C@@H]1CN([C@H](C)CO)C(=O)CCCn2nncc2CO[C@H]1CN(C)S(=O)(=O)c1ccc(-c2ccccc2)cc1,inactive: 0.979
5,COc1ccc(S(=O)(=O)Nc2ccc3c(c2)CC(=O)N([C@H](C)CO)C[C@@H](C)[C@@H](CN(C)Cc2ccc(-c4ccccc4)cc2)O3)cc1,inactive: 1.02
6,Cc1cc(C)n(CCC(=O)O)n1,inactive: 1
7,CC(C)NC(=O)N(C)C[C@@H]1Oc2ccc(NC(=O)NC3CCCCC3)cc2C(=O)N([C@@H](C)CO)C[C@H]1C,inactive: 1.01
8,CCOC(=O)[C@H]1C/C=C/C[C@H](C(=O)OCC)C(=O)O[C@H]2[C@@H](OC)O[C@H](COC(=O)NCCCCCC(=O)NO)[C@@H](OC(=O)Nc3ccccc3)[C@@H]2OC1=O,inactive: 0.981
9,C[C@H]1CCCCO[C@@H](CN(C)Cc2ccccc2)[C@@H](C)CN([C@@H](C)CO)C(=O)c2cc(NS(=O)(=O)c3ccccc3)ccc2O1,inactive: 0.977
10,O=C(O)CCc1nc(-c2ccccc2)c(-c2ccccc2)o1,inactive: 1.16
11,C[C@H](CO)N1C[C@H](C)[C@H](CN(C)C(=O)Nc2ccccc2)Oc2cc(C#CC3(O)CCCC3)ccc2S1(=O)=O,inactive: 1.04
12,C[C@H](CO)N1C[C@H](C)[C@H](CN(C)S(=O)(=O)c2ccc(Cl)cc2)Oc2c(NC(=O)Nc3ccc(C(F)(F)F)cc3)cccc2C1=O,inactive: 1.01
13,C[C@@H]1CN([C@@H](C)CO)C(=O)CCCn2cc(nn2)CO[C@@H]1CN(C)S(=O)(=O)c1ccc2c(c1)OCCCO2,inactive: 1.05
14,C[C@H](CO)N1C[C@H](C)[C@@H](CN(C)Cc2ccc3c(c2)OCO3)Oc2ccc(NS(C)(=O)=O)cc2C1=O,inactive: 1.01
15,C[C@@H]1CN([C@H](C)CO)C(=O)c2cc(NC(=O)Nc3ccc(C(F)(F)F)cc3)ccc2O[C@@H](C)CCCCO[C@H]1CN(C)C(=O)c1ccccc1,inactive: 1.01
16,Cc1noc(C)c1NC(=O)Nc1ccc2c(c1)C(=O)N([C@H](C)CO)C[C@H](C)[C@H](CN(C)C(=O)NC(C)C)O2,inactive: 1
17,C[C@H](CO)N1C[C@H](C)[C@H](CN(C)S(C)(=O)=O)Oc2cc(C#CCN(C)C)ccc2S1(=O)=O,inactive: 0.997
18,C[C@@H]1CN([C@@H](C)CO)C(=O)c2cc(NC(=O)C3CCCCC3)ccc2O[C@@H]1CN(C)Cc1ccc(-c2ccccc2)cc1,inactive: 1.01
